Measured values reported in PubChem BioAssay AID588855 (National Center for Advancing Translational Sciences (NCATS), 2011).
The whole screen tested about 410,000 compounds, of which about 5,000 (1.2%) were called active. Inconclusive results, whose numbers are uncertain, are shown with a selection of clear calls. Calls follow the shape of the dose curve; as a rule, active = well fitted inhibition curve with a large enough effect; inconclusive = small, poorly fitted or top-dose-only effect; inactive = no such curve, though single readings can be large or run the other way. Potencies of inconclusive entries are doubtful fits and often do not repeat.

test: qHTS for Inhibitors of TGF-b; conditions: HepG2 CAGA-GFP TGF-b/SMAD3 reporter, GFP fluorescence, 18 h, TGF-beta stimulated, 500 pg/mL final; series mostly up to 46.1 µM; activity, negative = inhibition: at the top concentration; also: nearly all actives have a fitted effect of over 65% in size
How it was run: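 Inhibition was scored as loss of TGF-beta-induced (500 pg/mL final, 18 hours, 37 degrees C) GFP in HEPG2 cells carrying a CAGA-GFP reporter, in DMEM with 1% FBS. Well GFP was summed per cell; Activity was normalised to unstimulated and stimulated DMSO wells, then concentration-response fitting.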
% is scaled to controls: 0 for no effect and ±100 for the full control effect; potency is read from the fitted curve at half-maximal effect; tags tell the direction and shape of the fitted curve.

SMILES	Potency	activity, negative = inhibition
CC1CCCCN1C(=S)NC(=O)c1cc(Br)ccc1Cl (stereo not given)	inconclusive: 11.2 µM [inhibitor, single point]	
CCC1CCCCN1C(=O)Cn1c(=O)n(CC2CCC(C(=O)NC)CC2)c(=O)c2sccc21 (stereo not given)		inactive: -12.4%
CCOc1ncccc1C(=O)NCc1ccc(OC)c(OC)c1		inactive: 3.11%
Cc1ccc(Oc2coc3cc(O)ccc3c2=O)cc1		inactive: -1.08%
COc1ccc(S(=O)(=O)N2CCCC(C(=O)Nc3ccc(NC(=O)c4ccccn4)cc3)C2)cc1 (stereo not given)	inconclusive: 6.31 µM [inhibitor, single point]	
CC(=O)c1ccc(NC(=O)CN2C(=O)CCC2=O)cc1		inactive: -23.7%
Cc1ccc2nc(-c3ccc(F)cc3)c(Cc3cccc(Cl)c3)n2c1	inconclusive: 15.8 µM [inhibitor, single point]	
Cc1ccc(C)c(CSc2nc3ccncc3n2Cc2nc(-c3ccccc3Cl)oc2C)c1	inconclusive: 11.2 µM [inhibitor, partial curve, poor fit]	
CSc1cc(-c2ccccc2)n(Cc2ccccc2Cl)c(=O)c1C#N		inactive: 15.3%
COc1ccc(C(=O)C[n+]2cn(C(F)F)c3ccccc32)c(F)c1	inconclusive: 15.8 µM [inhibitor, single point]	
O=C(N/N=C/c1ccc[nH]1)c1cc(-c2cccs2)nc2ccccc12		inactive: -9.61%
CC(C)C1=CC(=Nc2ccc(S(N)(=O)=O)cc2)C=C(C(C)C)C1=O	inconclusive: 11.2 µM [inhibitor, partial curve, poor fit]	
CC[C@]1(c2cccc(C)c2)C(=O)N(C(=O)OC)N1C(=O)OC	inconclusive: 0.251 µM [inhibitor, full curve, poor fit]	
O=C(Nc1ccc(N2CCOCC2)c(Cl)c1)c1ccc(-n2cnnc2)cc1		inactive: -5.21%
O=C1c2ccccc2-c2nnc(-c3ccc(O)cc3)cc21		inactive: -2.94%
CCOC(=O)C1=C(CNCCc2ccc(Cl)cc2)NC(=O)NC1c1ccc2c(c1)OCO2 (stereo not given)	inconclusive: 25.1 µM [inhibitor, single point]	
COc1cc(/C=C/C=C2/CC/C(=C/C=C/c3ccc(O)c(OC)c3)C2=O)ccc1O	inconclusive: 0.891 µM [inhibitor, full curve, poor fit]	
Cc1cc(O)c(-c2cc(O)c(C)cc2O)cc1O	inconclusive: 20 µM [inhibitor, partial curve, poor fit]	
COC(=O)c1cc2sccc2n1CC(=O)N1CCCc2ccccc21	inconclusive: 35.5 µM [inhibitor, single point]	
Cc1ccc(NC(=O)C2CCN(S(=O)(=O)c3ccc(N4CCCC4=O)cc3)CC2)cc1Cl	inconclusive: 10 µM [inhibitor, partial curve]	
